Reference: publication PMC4336329 (PLoS ONE, 2015)
The whole screen tested about 310,000 compounds, of which about 2,200 (0.71%) showed an effect of 50% or more. The effect is printed as a negative number. Some of the results follow.

Target: human ether-à-go-go-related gene (hERG) potassium channel (human, UniProt Q12809)
Assay: primary screen, population patch clamp on CHO cells stably expressing hERG

human ether-à-go-go-related gene (hERG) potassium channel, sequence (Q12809 whole entry, looked up): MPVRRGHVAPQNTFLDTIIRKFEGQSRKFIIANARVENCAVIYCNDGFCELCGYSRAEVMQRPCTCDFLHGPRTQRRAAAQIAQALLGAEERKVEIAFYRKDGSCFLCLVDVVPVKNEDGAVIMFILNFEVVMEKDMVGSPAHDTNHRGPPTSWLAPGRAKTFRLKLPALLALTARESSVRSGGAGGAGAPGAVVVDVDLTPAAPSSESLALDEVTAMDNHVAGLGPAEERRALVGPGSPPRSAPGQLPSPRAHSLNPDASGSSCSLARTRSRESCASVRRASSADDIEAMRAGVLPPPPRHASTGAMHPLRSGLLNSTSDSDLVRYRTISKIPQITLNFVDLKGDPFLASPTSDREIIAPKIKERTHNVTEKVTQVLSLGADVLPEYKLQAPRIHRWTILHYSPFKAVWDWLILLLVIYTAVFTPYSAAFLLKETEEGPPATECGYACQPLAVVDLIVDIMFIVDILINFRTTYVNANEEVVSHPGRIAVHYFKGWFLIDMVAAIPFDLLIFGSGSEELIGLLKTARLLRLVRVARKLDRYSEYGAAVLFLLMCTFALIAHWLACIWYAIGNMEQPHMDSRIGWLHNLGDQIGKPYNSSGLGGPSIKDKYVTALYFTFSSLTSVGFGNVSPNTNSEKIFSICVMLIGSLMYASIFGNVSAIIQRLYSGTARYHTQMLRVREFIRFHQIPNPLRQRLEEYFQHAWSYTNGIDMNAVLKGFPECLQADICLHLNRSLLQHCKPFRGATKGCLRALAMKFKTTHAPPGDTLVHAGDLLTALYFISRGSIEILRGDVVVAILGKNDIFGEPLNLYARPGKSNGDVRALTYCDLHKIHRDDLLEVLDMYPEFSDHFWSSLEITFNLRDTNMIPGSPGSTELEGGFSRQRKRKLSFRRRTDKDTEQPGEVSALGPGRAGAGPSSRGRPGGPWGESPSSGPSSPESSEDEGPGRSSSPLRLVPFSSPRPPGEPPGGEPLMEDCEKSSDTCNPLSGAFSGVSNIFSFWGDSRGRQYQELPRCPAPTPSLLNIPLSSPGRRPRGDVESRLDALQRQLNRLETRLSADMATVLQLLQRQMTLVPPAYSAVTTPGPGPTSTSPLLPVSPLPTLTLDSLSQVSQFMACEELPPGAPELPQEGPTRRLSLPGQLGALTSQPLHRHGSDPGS

Row | SMILES | hERG current change (%, negative = inhibition) at 1uM
1 | COc1cccc(/C=C/C(=O)Nc2ccc3nc4n(c(=O)c3c2)CCCC4)c1OC | 15.9%
2 | Cc1onc(-c2ccccc2)c1C(=O)N/N=C/c1ccc(O)c([N+](=O)[O-])c1 | 5.98%
3 | COc1ccc(S(=O)(=O)N2CCC(O)(c3ccc4c(c3)OCO4)CC2)cc1 | -1.77%
4 | CCOc1ccc2c(c1)C(C)=CC(C)(C)N2C(=O)Nc1ccccc1 | 13.2%
5 | O=C(C1COc2ccccc2O1)N1CCc2ccccc2C1 (stereo not drawn) | 7.08%
6 | Cc1nc2ccccc2n2c(-c3ccccc3)c3c(=O)n(C)c(=O)n(C)c3c12 | 9.9%
7 | Clc1cccc(CSc2ccc(-c3cccnc3)nn2)c1 | -2.96%
8 | C=CCc1c(C)c(C#N)c2nc3ccccc3n2c1NCCN(C)C | 4.14%
9 | CC(=O)O[C@H]1CC[C@@]2(C)[C@H](C1)C(=O)C[C@H]1[C@@H]3CC[C@@H]4[C@@H](CN5C[C@@H](C)CC[C@H]5[C@@]4(C)O)[C@@H]3C[C@@H]12 | 3.12%
10 | O=C(CN(C(=O)CCC(=O)Nc1nccs1)c1ccc2c(c1)OCO2)NCc1ccc(F)cc1 | 9.89%
11 | CCCCNC(NCCCC)=C(S(=O)(=O)CC)S(=O)(=O)CC | 7.6%
12 | COc1ccc([N+](=O)[O-])cc1NC(=O)C(C)OC(=O)CC1CCCC1 (stereo not drawn) | 3.47%
13 | O=C(O)CC(NC(=O)Cc1ccccc1)c1cc([N+](=O)[O-])ccc1Cl (stereo not drawn) | 13.7%
14 | CCO[C@@H]1OC(C(=O)NC2CC2)=C[C@H](C(C)(C)C)[C@H]1CCCO | 13.7%
15 | COc1ccc(OCC(=O)N2CCN(Cc3ccc4c(c3)OCO4)CC2)cc1 | 6.71%
16 | CCOc1ccc(Br)cc1S(=O)(=O)Nc1nc(CN2CCOCC2)nc2sc(C)c(C)c12 | 10.7%
17 | O=C(NC1CC1)C1CC(=O)N(c2cccc(Cl)c2)C1 (stereo not drawn) | 5.03%
18 | COc1ccc(-c2nc(CS(=O)CC(=O)NCc3ccccc3)c(C)o2)cc1OC (stereo not drawn) | 4.9%
19 | CC(C)(C)NC(=O)COC(=O)CCC(=O)c1ccc(Cl)cc1 | 7.79%
20 | O=C(Nc1ccccc1F)c1ccco1 | 15.2%
21 | CCCCNC(=O)CSc1nc2ccccc2n1S(=O)(=O)c1ccc(Cl)cc1 | 9.92%
22 | O=C(CCNC(=O)c1ccc(Br)cc1)NCC1CCCO1 (stereo not drawn) | 5.9%
23 | O=C(Nc1ccnn1C1CCN(C2CCC2)CC1)c1ccccc1 | 16.6%

Row | SMILES | hERG current change (%, negative = inhibition) at 1uM
24 | NC(N)=NN=C1c2ccccc2-c2ccccc21 | 14.4%
25 | COc1ccc(CNC(=O)CCCn2c(=S)[nH]c3cc4c(cc3c2=O)OCO4)cc1 | 11.5%
26 | Cc1cccc([N+](=O)[O-])c1NC(=O)CN(Cc1ccccc1)Cc1ccccc1 | -4.3%
27 | CN(N=Nc1ccc([N+](=O)[O-])cc1)c1ccccc1 | 11.5%
28 | CC(=O)c1cc2c(O)c(O)ccc2o1 | 11.8%
29 | Cc1ccc(C(=O)Nc2ccncc2)o1 | 5.98%
30 | Cc1ccc(C(=O)COC(=O)c2ccncc2)cc1[N+](=O)[O-] | 21.2%
31 | CCN(CC)c1ccc(/C=C2/C(=O)N(c3ccc([N+](=O)[O-])cc3)N=C2N2CCOCC2)cc1 | 7.67%
32 | NC(=O)c1ccc(NC(=O)c2ccc3c(c2)OCO3)cc1 | -2.25%
33 | CCOC(=O)N1CCN(C(=O)CCNS(=O)(=O)c2cc(Br)cnc2N)CC1 | 10.6%
34 | C=CCn1c(SCC(=O)NC(C)(C)C)nnc1-c1ccccc1O | -4.13%
35 | Cc1ccc(-c2nc3ccccc3c(=O)n2CCCN2CCOCC2)cc1 | 8.79%
36 | CC(=O)Oc1cc(OC(C)=O)c2c(=O)c(-c3ccc4c(c3)OCCCO4)c(C)oc2c1 | 10.9%
37 | O=C(CN1C(=O)NC2(CCCc3ccccc32)C1=O)NCc1ccco1 (stereo not drawn) | 15.9%
38 | O=C(NNC1=NCCCCC1)c1ccccc1 | 11%
39 | CCCCn1nc2cc(C(=O)NCc3ccccc3OC)ccc2c1OCC | -12.4%
40 | Cc1ccc(-n2nc3c(c2NC(=O)c2ccco2)CS(=O)C3)c(C)c1 (stereo not drawn) | 2.16%
41 | CCOC(=O)c1c(C)[nH]c(C(=O)O)c1C | 11.5%
42 | CC1=CC(C)(C)N=C(NC#N)N1 | 7.76%
43 | CCCCc1nnc(NC(=O)CSc2nc(C)cc(=O)[nH]2)s1 | -2.64%
44 | OCCCn1c(C2CCCN2c2nc(-c3ccc(Cl)cc3)cs2)nc2cc(Cl)c(Cl)cc21 (stereo not drawn) | -15.5%
45 | S=c1[nH]nc(Nc2ccccc2Cl)s1 | 10.5%
